The test system of the data set is SIVsab (simian immunodeficiency virus of sabaeus monkeys), single-cycle GFP reporter, in CRFK cells. Description: enrichment among uninfected cells over input (fold); higher = stronger restriction. The protocol: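 Pools of CRFK cells expressing variants of the TRIM5α v1 loop were challenged with the single-cycle reporter, sorted by GFP and sequenced; mean of two replicates.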

[1] abbreviates: library: insertions and deletions.
The mark [2] stands for this setting: library: human / rhesus combinations.

± gives the standard deviation of the averaged measurements. Restriction of a single-cycle SIVsab GFP reporter by TRIM5α v1-loop variants in CRFK cells. Human variants: read share among cells still uninfected after two challenges over input, higher = gained restriction. Rhesus variants: share among infected cells over input, higher = lost restriction. Reporter dose not given per row. No active / inactive call per row; the paper calls a change when both replicates lie above its controls (mean + 2 SD of stop or wild-type variants, or the top frameshift score). Residues outside the varied loop are taken from Swiss-Prot. The paper reads the human single-substitution scores as noise; they and the rhesus combinations repeat poorly (rank correlation 0.3 to 0.4), indel scores repeat only for the top variants, rhesus substitutions well (0.9).

On to “MASGILVNVKEEVTCPICLELLTQPLSLDCGHSFCQACLTANHKKSMLDKGESSCPVCRISYQPENIRPNRHVANIVEKLREVKLSPEGQKVDHCARHGEKLLLFCQEDGKVICWLCERSQEHRGHHTFLTEEVAREYQVKLQAALEMLRQKQQEAEELEADIREEKASWKTQIQYDKTNVLADFEQLRDILDWEESNELQNLEKEEEDILKSLTNSETEMVQQTQSLRELISDLEHRLQGSVMELLQGVDGVIKRTENVTLKKPETFPKNQRRVFRAPDLKGMLEVFRELTDVRRYWVDVTVAPNNISCAVISEDKRQVSSPKPQIIYGAKPQIIYGARGTRYQTFVNFNYCTGILGSQSITSGKHYWEVDVSKKTAWILGVCAGFQPDAMCNIEKNENYQPKYGYWVIGLEEGVKCSAFQDSSFHTPSVPFIVPLSVIICPDRVGVFLDYEACTVSFFNITNHGFLIYKFSHCSFSQPVFPYLNPRKCGVPMTLCSPSS [human TRIM5α, 8-codon duplication at 324]”, for which the enrichment under setting [1] was 0.373 ± 0.37.
Same read-out and setting: for “MASGILVNVKEEVTCPICLELLTQPLSLDCGHSFCQACLTANHKKSMLDKGESSCPVCRISYQPENIRPNRHVANIVEKLREVKLSPEGQKVDHCARHGEKLLLFCQEDGKVICWLCERSQEHRGHHTFLTEEVAREYQVKLQAALEMLRQKQQEAEELEADIREEKASWKTQIQYDKTNVLADFEQLRDILDWEESNELQNLEKEEEDILKSLTNSETEMVQQTQSLRELISDLEHRLQGSVMELLQGVDGVIKRTENVTLKKPETFPKNQRRVFRAPDLKGMLEVFRELTDVRRYWVDVTVAPNNISCAVISEDKRQVSSPKPQIIYGANFNYCTGILGSQSITSGKHYWEVDVSKKTAWILGVCAGFQPDAMCNIEKNENYQPKYGYWVIGLEEGVKCSAFQDSSFHTPSVPFIVPLSVIICPDRVGVFLDYEACTVSFFNITNHGFLIYKFSHCSFSQPVFPYLNPRKCGVPMTLCSPSS [human TRIM5α, 9-codon deletion at 332]” the value was 1.01 ± 0.85.
As for “MASGILVNVKEEVTCPICLELLTQPLSLDCGHSFCQACLTANHKKSMLDKGESSCPVCRISYQPENIRPNRHVANIVEKLREVKLSPEGQKVDHCARHGEKLLLFCQEDGKVICWLCERSQEHRGHHTFLTEEVAREYQVKLQAALEMLRQKQQEAEELEADIREEKASWKTQIQYDKTNVLADFEQLRDILDWEESNELQNLEKEEEDILKSLTNSETEMVQQTQSLRELISDLEHRLQGSVMELLQGVDGVIKRTENVTLKKPETFPKNQRRVFRAPDLKGMLEVFRELTDVRRYWVDVTVAPNNISCAVISEDKRQVSSPKPQIIYGAPGTLFPSFTNFNYCTGILGSQSITSGKHYWEVDVSKKTAWILGVCAGFQPDAMCNIEKNENYQPKYGYWVIGLEEGVKCSAFQDSSFHTPSVPFIVPLSVIICPDRVGVFLDYEACTVSFFNITNHGFLIYKFSHCSFSQPVFPYLNPRKCGVPMTLCSPSS [human TRIM5α, 330-340 = GAPGTLFPSFT]”, the enrichment under setting [2] amounted to 1.17 ± 1.7.
On the same count and under the same terms, for “MASGILVNVKEEVTCPICLELLTQPLSLDCGHSFCQACLTANHKKSMLDKGESSCPVCRISYQPENIRPNRHVANIVEKLREVKLSPEGQKVDHCARHGEKLLLFCQEDGKVICWLCERSQEHRGHHTFLTEEVAREYQVKLQAALEMLRQKQQEAEELEADIREEKASWKTQIQYDKTNVLADFEQLRDILDWEESNELQNLEKEEEDILKSLTNSETEMVQQTQSLRELISDLEHRLQGSVMELLQGVDGVIKRTENVTLKKPETFPKNQRRVFRAPDLKGMLEVFRELTDVRRYWVDVTVAPNNISCAVISEDKRQVSSPKPQIIYGAPGTLFPSLVNFNYCTGILGSQSITSGKHYWEVDVSKKTAWILGVCAGFQPDAMCNIEKNENYQPKYGYWVIGLEEGVKCSAFQDSSFHTPSVPFIVPLSVIICPDRVGVFLDYEACTVSFFNITNHGFLIYKFSHCSFSQPVFPYLNPRKCGVPMTLCSPSS [human TRIM5α, 330-340 = GAPGTLFPSLV]” the value was 0.00706 ± 0.001.

The record behind these values is the supplement of paper PMC12230231.
